# In the supplement of paper PMC11417369:
# ± gives the standard deviation of the averaged measurements. This is one part of the list.
# Tested on: PfAP2-LT AP2 domain (GST-tagged)
# Assay: gcPBM binding intensity (ln(normalized median fluorescence intensity)); higher = stronger DNA binding
# Method in brief: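 After 1 h on an Agilent 4 × 180k array of primer-extended double-stranded 36-bp intergenic genomic probes and negative controls, bound GST-tagged P. falciparum DNA-binding domains were detected with Alexa488 anti-GST antibody and scanned at 488 nm. The domains had been expressed in E. coli, and binding took place in 1× PBS with 1% milk, 0.2 mg/ml BSA, 0.5% salmon testes DNA and 0.03% Triton X-100. Binding intensity is the highest Masliner-normalised natural-log median intensity across replicate spots of either probe orientation.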
row,Sequence,gcPBM binding intensity (ln)
1,AAAAAAATTAAACATACACACGTTACTATTTTTATA [CACACA_site5009],8.86 ± 0.57
2,GAAAATAAAAAATATGAACACACATATATAACAAAA [CACACA_site7975],9.18 ± 0.47
3,TCCTAATATATGTATGCACACACAATATATACATAT [CACACA_site9111],9.39 ± 0.21
4,CATATCAATAATATCACACATATATGTGATTTTATT [CACACA_site5053],8.9 ± 0.35
5,TTATTAATTTATAAATGTACGAATTTTTTATTTAAC [XGTACX_site7605],8.39 ± 0.47
6,CCCCTTAATTAAAGGAGTACTATTTGTGAATAATAT [XGTACX_site4715],9.13 ± 0.11
7,TTTATGTAGGAACTAACACACATTGTAAGATTCAGA [CACACA_site1998],8.8 ± 0.39
8,GGAACTTTTGGAGGTGCATGCGGAGCAATCTTTTCA [TGCATGCA_site454],8.69 ± 0.4
9,TTTAAACCTTAATATTGTACGCAAAAAAAAAAAGAA [XGTACX_site3757],8.54 ± 0.46
10,TATTAATAATTAAGTTGTACATTAATTAATATACTG [XGTACX_site6994],8.56 ± 0.46
11,TTTAATATTAATAATTGTACATTTTCATAAATACGC [XGTACX_site2837],8.62 ± 0.54
12,TAAAGGCAAACAAACACACACACATATATACATATA [CACACA_site2123],9.87 ± 0.42
13,CCAATACTGTTTAAATGTACAAGTAGGAGGTTAATT [XGTACX_site7260],8.77 ± 0.34
14,AAAAATTAACAAAAGGTGCAAACAAATAGTGGTTTT [GTGCAC_site9998],9.01 ± 0.49
15,AAAATTTAATATAATGCACACATAAAAAAAAATTCA [CACACA_site8640],8.85 ± 0.53
16,TCCTGCCTCTCTTTGGTGCGTTGTAACCCTCGAGGA,8.78 ± 0.56
17,ATATTAATATACATATGTACATATATATATATATAT [XGTACX_site7425],9.47 ± 0.057
18,TAAATTATTTATAAAGCACACAAGAAAAAATAAAAT [CACACA_site2132],8.89 ± 0.45
19,ATATATATGTATATGTGTACTTATATTTGTCATTTT [XGTACX_site1317],9.01 ± 0.47
20,AAAAAAATTAAACACACACACACATATATATATATA [CACACA_site4718],10.1 ± 0.27
21,GAACAAAAGGAATGTTGTACATAAAAAATGAAAAAT [XGTACX_site3929],8.99 ± 0.47
22,AAAAAAGTAAAAAGTGCATGTAAAATATAAGTATCT [TGCATGCA_site55],9.18 ± 0.61
23,TTTTTTTTTTATTTTGCACACTTCTAATTTAGTTGT [CACACA_site3429],9.14 ± 0.44
24,GTTATTCTTAATTTTTGTACACATTTTTATATTATT [XGTACX_site7227],9.1 ± 0.49
25,AATTCCTATAATGAGAGTACGCATTAGAACAGTAGG [XGTACX_site5721],8.88 ± 0.29
